Assay results published in article PMC11477209, “Toxicological Evaluation of Kaempferol and Linearolactone as Treatments for Amoebic Liver Abscess Development in Mesocricetus auratus” (International Journal of Molecular Sciences, 2024).

Conditions: IC50 normal cell line/IC50 trophozoites

SMILES: C[C@]12C[C@H](c3ccoc3)OC(=O)[C@H]1CCC13COC(=O)C1=CC=C[C@H]32 (stereo partly drawn) [LL, (4S,7R,9R,10S)-7-(furan-3-yl)-9-methyl-6,16-dioxatetracyclo[8.7.0.01,14.04,9]heptadeca-11,13-diene-5,15-dione]
- SI (selectivity index): > 32
